# Measurements from the supplement of paper PMC3334620.
# Whole data set: some 33,000 sequences, median “E-score (-0.5 to 0.5)” near -0.012, cut for the highest 2% near 0.29. The list shows a part of the results.
# Target: T1, Ybr033w (UniProt P38073)
# T1 sequence: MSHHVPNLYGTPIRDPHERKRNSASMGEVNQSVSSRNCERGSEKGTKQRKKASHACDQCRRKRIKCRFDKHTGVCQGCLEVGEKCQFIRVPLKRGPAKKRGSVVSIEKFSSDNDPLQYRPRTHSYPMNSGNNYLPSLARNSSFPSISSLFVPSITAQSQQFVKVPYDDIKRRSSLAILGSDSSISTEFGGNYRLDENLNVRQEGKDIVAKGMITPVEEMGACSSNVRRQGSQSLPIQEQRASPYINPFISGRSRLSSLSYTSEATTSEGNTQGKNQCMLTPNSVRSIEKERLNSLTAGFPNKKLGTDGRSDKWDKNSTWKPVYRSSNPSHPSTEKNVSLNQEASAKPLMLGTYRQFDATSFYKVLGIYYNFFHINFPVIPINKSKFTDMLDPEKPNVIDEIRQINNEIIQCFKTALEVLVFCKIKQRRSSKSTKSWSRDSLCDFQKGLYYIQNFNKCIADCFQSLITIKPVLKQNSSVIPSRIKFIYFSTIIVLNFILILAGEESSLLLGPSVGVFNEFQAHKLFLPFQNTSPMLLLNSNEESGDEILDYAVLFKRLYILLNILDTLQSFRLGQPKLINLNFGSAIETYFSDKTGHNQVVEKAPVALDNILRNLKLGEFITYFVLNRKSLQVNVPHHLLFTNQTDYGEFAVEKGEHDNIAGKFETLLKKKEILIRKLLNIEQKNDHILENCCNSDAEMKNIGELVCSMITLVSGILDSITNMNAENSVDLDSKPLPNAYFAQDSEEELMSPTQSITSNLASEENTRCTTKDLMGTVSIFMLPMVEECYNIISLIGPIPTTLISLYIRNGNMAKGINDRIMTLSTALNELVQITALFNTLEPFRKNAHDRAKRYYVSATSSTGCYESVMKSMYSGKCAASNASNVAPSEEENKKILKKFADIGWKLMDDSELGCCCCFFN
# Assay: PBM E-score (8-mer binding enrichment) (E-score (-0.5 to 0.5)); higher = stronger / more preferred TF binding; most listed sequences are background and not binding sites
# Settings: protein concentration: 200 nM; construct: GST-full length
# Summary of the method: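 Each ungapped eight-base word and its reverse complement, pooled, received an E-score from the Universal PBM Analysis Suite. Underlying scans, normalised with masliner, recorded fluorescent anti-GST bound to GST-tagged yeast transcription factors. These were applied at about 100-200 nM to universal all-10-mer Agilent arrays double-stranded by primer extension.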
row,Sequence,PBM E-score
1,TCTTACAA,-0.00467
2,ATTAGGAC,-0.0862
3,GCACCAGC,-0.187
4,GTAAACTA,0.219
5,GCCGCTCA,-0.195
6,CGGCCCTA,-0.113
7,GTGTTCCA,-0.0466
8,CCAAGTTC,0.00648
9,AGAGGTGA,0.0959
10,CTTAGTAC,0.0947
11,GCACCAAA,0.125
12,ATCCAGAC,0.173
13,GAAAACAC,0.131
14,ATGGAACG,-0.152
15,AGTCAACG,-0.167
16,AGTTAATC,0.368
17,AGTTGCGG,0.0698
18,ACAGTTAA,0.244
19,AGCCGTGA,0.0154
20,ACGCCCTA,-0.107
21,ATAATGTG,0.159
22,ATCTGACG,-0.253
23,CGTATAAG,0.0155
24,CGATTAAG,0.27
25,CACCCTAG,-0.0297

row,Sequence,PBM E-score
1,AATAGATT,0.265
2,ACGACAGC,0.0111
3,AAGATACT,0.0974
4,AATGTGGC,0.0327
5,GCGAGCGA,-0.00447
6,ACCCTCAG,0.0505
7,ATCGCATG,0.109
8,AGTGAAAC,0.11
9,CCCATATA,-0.0671
10,GGGACACA,-0.0718
11,CATTATGC,0.0609
12,CCCATCCG,-0.162
13,ATATTCTC,0.267
14,CATATGAC,0.0313
15,GAGTTACA,0.144
16,GCACTTCA,0.0397
17,CGGATCTC,-0.125
18,CATCACCG,-0.204
19,GAGCCACC,-0.265
20,ATGCAAAA,0.239
21,TCTGAAAA,0.0719
22,CATATAAA,0.174
23,CTCTCGGA,0.104
24,CCTCGAAC,-0.101
25,AAGTCCAT,-0.0147

row,Sequence,PBM E-score
1,GACGCAAC,-0.0759
2,ATCCATCC,0.00179
3,ACAAGGTC,-0.00044
4,AAGCGGAA,0.0817
5,CATCATGC,-0.0129
6,GTAAGCCA,-0.121
7,ATTTCTTG,0.198
8,CCCTGTAC,-0.151
9,CAACCCAC,-0.0291
10,AACCCAAT,0.14
11,AATGGACA,0.157
12,GCGGAGAA,0.119
13,TGTTATAA,0.19
14,CCTCGTGA,-0.153
15,GTTAAGAA,0.0266
16,AGCTAGTG,0.0615
17,ATTCACGG,-0.0782
18,CGGTGAGC,-0.26
19,ATAGTGTC,0.108
20,CCGCTCGA,-0.0347
21,AACCGAAC,-0.0481
22,CGCAAGTA,0.072
23,CCTGTCTA,-0.128
24,CCTGGCGC,-0.123
25,AGTTCACG,-0.00254

row,Sequence,PBM E-score
1,CCGAGAAG,-0.0293
2,CCGACAAA,0.161
3,AAGTTCAC,-0.0124
4,CGCTTCGC,-0.0985
5,CAACTCCC,-0.0757
6,CAAAATCG,0.16
7,GATTACCC,0.0608
8,GATAGGCC,-0.185
9,ACGTCCCG,-0.356
10,CCTAAGGC,-0.375
11,GACCCGAA,-0.106
12,AGTTCTGG,0.14
13,CAATCATC,0.103
14,GCGAGACA,-0.0827
15,GATTCGCA,0.0873
16,ACCATGCA,-0.102
17,CAATCATG,-0.0368
18,AAGCCCAC,-0.126
19,CTTCGCCA,-0.19
20,ACCGCCAT,-0.0145
21,CTGGCCGA,-0.111
22,ACAATGGC,-0.113
23,GTACTGAA,0.173
24,AGACTTGC,-0.081
25,CGGATCCC,-0.135

row,Sequence,PBM E-score
1,ACGCGTCC,-0.313
2,AGCATTTA,-0.0525
3,CTGGCAGC,-0.251
4,CAAGCGCG,-0.0792
5,GGCTAATA,0.157
6,AGAAAGGG,-0.113
7,CGAGATCC,-0.0705
8,ACAAGCTG,-0.123
9,AGGAGGTG,-0.271
10,ATCGAGAA,0.241
11,GCGTAGCC,-0.0956
12,CATGGTCA,-0.0109
13,CACCTAAA,0.025
14,AAGCAGTA,-0.0835
15,CTAATTCC,0.0934
16,AGTCACGG,-0.025
17,AGGCGCAT,-0.0781
18,CACACGCC,-0.0219
19,CGCTTTGC,-0.0369
20,GTCTTCTA,0.0859
21,GGGACCTA,-0.267
22,AGAGTCTA,-0.16
23,CGCACACG,-0.153
24,ATTGTGAC,0.0813
25,GTCAAGAA,0.146

row,Sequence,PBM E-score
1,ATTTAAAA,0.169
2,CTGAGGGA,-0.121
3,GCAGTTTA,-0.0637
4,GTACGCAA,0.0124
5,CCCAAGTA,-0.0495
6,CCCGGCAC,-0.288
7,AATCAAGG,0.0922
8,CTAGCAGA,0.0468
9,AGCACCGC,-0.231
10,AGCTGAAG,-0.0473
11,AGGTGTTG,-0.152
12,TAGAAGCA,0.0548
13,GGAGTGAA,0.0658
14,GTGTCGGA,-0.0465
15,TCATTCAA,0.151
16,AACCATAA,0.127
17,ACCGCACC,-0.149
18,CAATAATA,0.292
19,CCCAAACC,0.0285
20,CAGCCTTA,-0.128
21,AAGTGGAA,0.0301
22,CGAACCTC,-0.0151
23,AACGGTGC,-0.268
24,ACTGGGCC,-0.134
25,GGGAATAA,0.355

row,Sequence,PBM E-score
1,ATAAAAAG,0.316
2,AAAGCGAC,0.0114
3,CCTATACA,0.154
4,ACGGGGGA,-0.131
5,ACGACCCG,-0.231
6,CCATCGCC,-0.218
7,CACGGTGC,-0.283
8,GGATTTGA,-0.0289
9,CGTCCCCA,-0.169
10,CCGCTATC,-0.0295
11,AATACGCC,-0.032
12,AAAGCACT,0.155
13,CTCTGCAC,-0.262
14,ACAAGGAT,0.123
15,GAATAATA,0.395
16,GACGGTTA,-0.192
17,CTGGTGAA,-0.0462
18,ACGGAACC,-0.0347
19,CTACGTAC,0.139
20,CATTATCG,0.0618
21,ATCGGTCA,0.0471
22,GGTATCAC,-0.0801
